Our source for the binding values is paper PMC4214795.

The chains behind the UniProt entries cited, without tags or fusion partners.
UniProt P53350: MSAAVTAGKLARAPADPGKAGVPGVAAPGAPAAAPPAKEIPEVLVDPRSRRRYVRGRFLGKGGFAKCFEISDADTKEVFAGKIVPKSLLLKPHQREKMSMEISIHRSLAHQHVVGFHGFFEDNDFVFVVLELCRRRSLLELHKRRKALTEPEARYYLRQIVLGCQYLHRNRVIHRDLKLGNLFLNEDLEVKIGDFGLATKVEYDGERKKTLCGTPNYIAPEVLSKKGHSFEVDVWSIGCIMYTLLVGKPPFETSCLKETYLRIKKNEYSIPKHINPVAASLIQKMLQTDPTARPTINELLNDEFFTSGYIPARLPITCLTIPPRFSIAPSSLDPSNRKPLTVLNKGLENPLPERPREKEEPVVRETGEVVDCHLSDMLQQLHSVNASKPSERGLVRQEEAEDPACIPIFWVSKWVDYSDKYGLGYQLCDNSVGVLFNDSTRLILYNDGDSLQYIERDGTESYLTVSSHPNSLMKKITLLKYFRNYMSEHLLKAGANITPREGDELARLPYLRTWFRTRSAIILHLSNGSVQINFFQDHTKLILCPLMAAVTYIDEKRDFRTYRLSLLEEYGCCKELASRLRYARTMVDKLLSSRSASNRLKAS

These are yes or no findings as the source states them, for the method shown. For part of these data: In cells and extracts the contact can be indirect. Some binding calls cover weakened binding; strength is not graded here. Where a sequence is shown, tags or fusion partners need not be part of it.

Test [1] addresses T1, Clp1aa.1-371, GAL4 DNA binding domain fusion (S. pombe) (UniProt Q9P7H1).
T1 sequence: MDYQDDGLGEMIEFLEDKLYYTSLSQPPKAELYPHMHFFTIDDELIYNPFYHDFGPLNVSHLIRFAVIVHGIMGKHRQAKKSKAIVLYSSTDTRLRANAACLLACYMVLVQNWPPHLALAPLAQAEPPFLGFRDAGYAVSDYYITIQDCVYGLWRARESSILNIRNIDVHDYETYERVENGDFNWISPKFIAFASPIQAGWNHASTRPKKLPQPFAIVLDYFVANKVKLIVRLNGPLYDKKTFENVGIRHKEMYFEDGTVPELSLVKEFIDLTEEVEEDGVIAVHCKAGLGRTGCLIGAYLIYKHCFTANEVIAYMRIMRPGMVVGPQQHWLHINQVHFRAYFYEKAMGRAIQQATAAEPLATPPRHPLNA
Description: two-hybrid; bait Clp1p fused to GAL4 DNA binding domain, prey ESCRT proteins fused to GAL4 transcription activation domain; budding yeast with GAL4-galactosidase readout; X-gal overlay; interaction read from the lack of transcriptional readout of the auto-activating bait Clp1aa.1-371.

Test [2] concerns the target T2, Plo1p (wild-type), LexA DNA binding domain fusion (S. pombe) (UniProt P50528).
T2 sequence: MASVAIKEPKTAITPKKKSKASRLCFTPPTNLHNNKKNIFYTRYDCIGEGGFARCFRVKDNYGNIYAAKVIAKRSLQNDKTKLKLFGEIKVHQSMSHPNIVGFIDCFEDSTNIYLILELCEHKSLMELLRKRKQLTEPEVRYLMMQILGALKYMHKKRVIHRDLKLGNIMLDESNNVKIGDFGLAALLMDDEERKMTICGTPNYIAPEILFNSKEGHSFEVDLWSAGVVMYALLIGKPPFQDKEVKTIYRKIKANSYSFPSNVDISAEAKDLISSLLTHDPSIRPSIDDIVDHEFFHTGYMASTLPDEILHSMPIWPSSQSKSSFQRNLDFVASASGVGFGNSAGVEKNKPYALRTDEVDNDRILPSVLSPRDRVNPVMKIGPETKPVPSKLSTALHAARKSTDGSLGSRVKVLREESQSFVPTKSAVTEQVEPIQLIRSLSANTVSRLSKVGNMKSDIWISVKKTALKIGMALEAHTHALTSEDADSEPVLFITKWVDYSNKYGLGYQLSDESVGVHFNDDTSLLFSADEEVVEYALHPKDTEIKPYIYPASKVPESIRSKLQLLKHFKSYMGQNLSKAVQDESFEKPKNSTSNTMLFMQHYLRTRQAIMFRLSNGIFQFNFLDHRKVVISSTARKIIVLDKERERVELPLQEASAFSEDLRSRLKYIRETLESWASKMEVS
Description: two-hybrid; bait fused to LexA DNA binding domain (Plo1p or Ark1p), prey ESCRT proteins fused to GAL4 transcription activation domain; budding yeast with LEXA-galactosidase readout; three days on selective medium, X-gal overlay; qualitative.

In test [3] the target is Human polo-like kinase 1 (Plk1) (human) (UniProt P53350). Description: co-IP; HEK293 cells transfected with tagged ESCRT proteins; 1 mg lysate with 12.8 ug anti-Plk1 antibody overnight at 4 C, Protein A sepharose; washes with 100 mM KCl and with 250 mM NaCl, 1% Triton X-100; immunoblot with anti-GFP or anti-myc. Background: Immunoblotting shows a protein as a band on a membrane.

B1: Vps28p (ESCRT-I), GAL4 transcription activation domain fusion (protein, UniProt O13872 1-248)
chain: MTEYYDLNLLEKETSEENNFHTKNQQVREDLSILYSILVALEQLEKAFTKDAVSTSDFNSTCELLIQQWESCFSDERVTQAFGSFEDFCSKYRLQCPRAIKRIQEGISDERSQSNSTFSNAISTTAEPSIAMNDTTPQTVNPTKAPSNPSASIAKSIAGLVQNFITTLDAIRLNFIAKDQLHPLLSELIVSMDDLTESLKIQVSCRNKLVQWLIKINNMNITDQLNDVEKRELLYDLEQAYAECYSLL
Take B1: the binding result in test [1] and in test [2] was “binds” in each case.

B2: CHMP4B-YFP (protein, UniProt Q9H444 1-224)
chain: MSVFGKLFGAGGGKAGKGGPTPQEAIQRLRDTEEMLSKKQEFLEKKIEQELTAAKKHGTKNKRAALQALKRKKRYEKQLAQIDGTLSTIEFQREALENANTNTEVLKNMGYAAKAMKAAHDNMDIDKVDELMQDIADQQELAEEISTAISKPVGFGEEFDEDELMAELEELEQEELDKNLLEISGPETVPLPNVPSIALPSKPAKKKEEEDDDMKELENWAGSM
On to B2, for which the binding result in test [3] is listed as “binds”.

B3: Sst4p (ESCRT-0), GAL4 transcription activation domain fusion (protein, UniProt O13821 1-610)
chain: MSRWWNSNSQFASDIEKATSETLPAGSEEISLYLEISDQIRSKSVDPKFAMRILKSRIDHSNPNVQIMALKLTDTCVKNGGSGFLLEIASREFMDNLVSILRSPAGIDEDVKMVILRYIQSWALAVPDTNSPLSYIIHVYQNLKDGDYEFPEPSQNITSKFLDTETPPDWTDSEVCLRCRTPFTFTNRKHHCRNCGGVFCNQCSSKTLSLPHLGINQPVRVCDSCYSLRTKPKGSKSRARNERKFHAKTRKTPSKPVTNNEDEDIKRAIELSLKEMPQSREPPSYERPSEANVVISQDQHLTEDEDEELKRAIAISLEEAQKSSQKDDNVTAPNNMNISYPSVPAHTVSTDIRSSPFSGRPSDNPSTLISTADADNITLYATLVQKLKKLPPGSIFTEYQLQELHENMGVMRTRMMRSLGETMSKYNGLIQALQKLQTCMRLNDALIEQRLSSTYAHHYIDSSMDSNRSIEPEPDVISTVRNSSTIPQASSSSVPKIVVDSSPVTENPPSHSDVMGQKDTISSYYSTDTDVSANVMGNRHDEVVFSDTASGEKNTKLNIDESTNYYNTDSIDKVGEPFDEISSGYDDLMNGNDKQGNDIPEVQEASLIEL
B3: the binding entry in test [1] is “no binding”; in test [2] it was “binds”.

B4: CHMP6-GFP (protein, UniProt Q96FZ7 1-201)
chain: MGNLFGRKKQSRVTEQDKAILQLKQQRDKLRQYQKRIAQQLERERALARQLLRDGRKERAKLLLKKKRYQEQLLDRTENQISSLEAMVQSIEFTQIEMKVMEGLQFGNECLNKMHQVMSIEEVERILDETQEAVEYQRQIDELLAGSFTQEDEDAILEELSAITQEQIELPEVPSEPLPEKIPENVPVKARPRQAELVAAS
Take B4: in test [3], the binding result is “binds”.

B5: Vps4p, GAL4 transcription activation domain fusion (enzyme, UniProt Q09803 1-432)
chain: MSNPDCLSKAISLVKTAIDNDNAEQYPDAYKYYQSALDYFMMALKYEKNEKSKEIIRSKVIEYLDRAEKLKVYLQEKNNQISSKSRVSNGNVEGSNSPTANEALDSDAKKLRSALTSAILVEKPNVRWDDIAGLENAKEALKETVLLPIKLPQLFSHGRKPWSGILLYGPPGTGKSYLAKAVATEAGSTFFSISSSDLVSKWMGESERLVRQLFEMAREQKPSIIFIDEIDSLCGSRSEGESESSRRIKTEFLVQMNGVGKDESGVLVLGATNIPWTLDSAIRRRFEKRIYIPLPNAHARARMFELNVGKIPSELTSQDFKELAKMTDGYSGSDISIVVRDAIMEPVRRIHTATHFKEVYDNKSNRTLVTPCSPGDPDAFESSWLEVNPEDIMEPKLTVRDFYSAVRKVKPTLNAGDIEKHTQFTKDFGAEG
With B5, the binding result in test [1] and in test [2] was “no binding” throughout.

B6: Vps2p (ESCRT-III), GAL4 transcription activation domain fusion (protein, UniProt O14177 1-210)
chain: MGLTSWLFGGGKSPQEQLRAHQRSLGRAERELDRERTKLDQRERALIQEIKGSAKAGNTGAARIQARDLMRLRNSRKKMMNAKTQLQAISLRLQTMRTSEQMMQSMRGATRLLTGMNKSMNIPAMARITQQFERENEIMEQRQEMIDENMDDALEEDDEEEADELVNKVLDEIGVDLSQGLPDAATQIGTVPELKTEDNLQARLDELAKR
As to B6, the binding entry in test [1] and in test [2] was “no binding” throughout.

B7: Vps25p (ESCRT-II), GAL4 transcription activation domain fusion (protein, UniProt O74967 1-175)
chain: MRVPSIYNFPPFFTRQLNDNTWHSQKAAWQMWILLWCRENRQTSITINPELLESSLLHNSTIHRTLPLSVFREIVEDMVKQNLAEWTEKRNPKDVFWVYWRSISEWGNMILKWLSDMGREGSICTFYELQEQYKEVDCLDEVLLHKVLELLMKKGNIELMKGSSGKYSGFKVLKA
On to B7, for which the binding entry in test [1] is recorded as “no binding”; in test [2] it was “binds”.

B8: Vps36p (ESCRT-II), GAL4 transcription activation domain fusion (protein, UniProt O43038 1-467)
chain: MAFYLETTPSNLPVLDPSEEILLVQDQVGLYFGDEKSFRHNNGTLYLTKKHIFYVDSVDPKKNSLKIKISDIRDVQHTSRYFRSSPKIRLSLRHVEKSWACKICTFINVGDPINPCRNCGVANRFTIIKPKSDARFSQGLCTACTFQNYPDLNTCEICGNQLKNVDRNQLIQLSFRGSGSSKFYEAIKSETDEIEKQRYSNKYDTKVLRKAILEKSLRMGGIHDLEQSHEMQLAKNGRTLVHAFQDLDAFFSLAKDTMSLADQFAEKMDGLTGTQQSDKVQQLLNKSNQLGVLRGNHLDNVPVSANSRLYDIELCKSISEVLRTRLKADTDTVTMTQAWAIYNRSRKANLIPPTRFVKACELIDSMEVGITTSKMNSGLILFQLKTSNHSGKLLSAILEVMNPSTTALKCAMRLHWSIGVTLERLYQAEMDGYIVRDVYEESGSSLLYWKNEFDELSEELTKWFDES
On to B8, for which the binding entry in test [1] and in test [2] was “no binding” throughout.

B9: CHMP2A-GFP (protein, UniProt O43633 1-222)
chain: MDLLFGRRKTPEELLRQNQRALNRAMRELDRERQKLETQEKKIIADIKKMAKQGQMDAVRIMAKDLVRTRRYVRKFVLMRANIQAVSLKIQTLKSNNSMAQAMKGVTKAMGTMNRQLKLPQIQKIMMEFERQAEIMDMKEEMMNDAIDDAMGDEEDEEESDAVVSQVLDELGLSLTDELSNLPSTGGSLSVAAGGKKAEAAASALADADADLEERLKNLRRD
B9: in test [3], the binding result is given as “binds”.

B10: CHMP3-myc (protein, UniProt Q9Y3E7 1-222)
chain: MGLFGKTQEKPPKELVNEWSLKIRKEMRVVDRQIRDIQREEEKVKRSVKDAAKKGQKDVCIVLAKEMIRSRKAVSKLYASKAHMNSVLMGMKNQLAVLRVAGSLQKSTEVMKAMQSLVKIPEIQATMRELSKEMMKAGIIEEMLEDTFESMDDQEEMEEEAEMEIDRILFEITAGALGKAPSKVTDALPEPEPPGAMAASEDEEEEEEALEAMQSRLATLRS
As for B10, the binding result in test [3] was “binds”.

B11: Sst6p (ESCRT-I), GAL4 transcription activation domain fusion (protein, UniProt Q7Z992 1-487)
chain: MSDHAINEHPSRILNTIEKIRFWKNGLAEELELLFRKQCEDTFTLQAINIEVDTQDENKIEEVRIYLSTPAFDKTILTSACITVRSYYPSQPPIVQLLDEKGGKHKYTSLLLQLWKNERSVFNIYRLVQALIKQDFEREHTSPPELPTKLVNTIEKLKVKEENEAPPVIPAKPFSSSSEQHFRKVPALPSKLPPKPLKITANSSLGQETNSNSSSFQSTLFSLNTAPFSATSQQLVHDSVSLRRPSSNIPAQKPIPPKPEQNEIIITKDTPSLKDKYSKPALLPQKPKVSKGQIVQQVSVFSTGKKIESQSLLNLIDTDIETPLKGSSELLYSEDFKPNVDPVKIQQILHKQNKIIEEKWISQIRISKNLEVKQRLLDQERHALETLAKNIENNRFILGKRRRKAREALQKLDNLKDLSVQELFIIPSERELKYYELKRKDEKLDEGIRALNQALHHESIMPASWLKGIKLLARQQFLIRDEMLQYS
As to B11, the binding result in test [1] and in test [2] was “no binding” in each case.
